Data: paper PMC5702604
Results are given in words; binding and its absence hold for the method and conditions named. In cells and extracts the contact can be indirect. Some binding calls cover weakened binding; strength is not graded here. For part of these data: Sequences can lack the tags named with a protein.

Sequences of proteins named here, by UniProt entry; tags and fusion partners are left off. A change or cut given only in a name is not applied to a line headed by its entry. A line that says so, or that is headed by a name, gives the form on record, which may keep a tag or linker.
UniProt O55143: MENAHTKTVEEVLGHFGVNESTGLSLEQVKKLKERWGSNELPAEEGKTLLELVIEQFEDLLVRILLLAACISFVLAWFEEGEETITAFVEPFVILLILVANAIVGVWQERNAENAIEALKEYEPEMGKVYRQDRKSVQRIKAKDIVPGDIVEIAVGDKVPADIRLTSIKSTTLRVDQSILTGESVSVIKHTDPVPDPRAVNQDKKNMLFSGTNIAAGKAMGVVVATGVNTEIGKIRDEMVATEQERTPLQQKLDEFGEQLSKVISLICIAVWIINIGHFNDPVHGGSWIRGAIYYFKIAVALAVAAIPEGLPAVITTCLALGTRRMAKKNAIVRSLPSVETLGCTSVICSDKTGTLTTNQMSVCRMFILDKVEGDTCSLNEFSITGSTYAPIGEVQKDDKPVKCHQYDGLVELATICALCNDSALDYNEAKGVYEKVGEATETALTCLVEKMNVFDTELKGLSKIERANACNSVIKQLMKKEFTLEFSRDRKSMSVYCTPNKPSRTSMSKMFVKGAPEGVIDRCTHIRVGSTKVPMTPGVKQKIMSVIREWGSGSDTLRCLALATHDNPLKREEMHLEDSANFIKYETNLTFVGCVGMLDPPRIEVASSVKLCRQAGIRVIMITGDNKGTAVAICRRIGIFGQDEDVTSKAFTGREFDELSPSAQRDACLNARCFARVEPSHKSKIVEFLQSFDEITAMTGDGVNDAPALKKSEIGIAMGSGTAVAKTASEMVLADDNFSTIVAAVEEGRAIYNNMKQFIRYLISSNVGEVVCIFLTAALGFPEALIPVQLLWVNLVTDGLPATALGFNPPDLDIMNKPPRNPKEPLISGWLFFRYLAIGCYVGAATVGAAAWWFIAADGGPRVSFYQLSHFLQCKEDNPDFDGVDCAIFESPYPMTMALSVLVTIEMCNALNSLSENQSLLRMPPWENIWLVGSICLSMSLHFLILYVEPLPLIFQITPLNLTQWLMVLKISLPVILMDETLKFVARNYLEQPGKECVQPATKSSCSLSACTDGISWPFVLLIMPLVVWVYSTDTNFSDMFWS
UniProt Q93084: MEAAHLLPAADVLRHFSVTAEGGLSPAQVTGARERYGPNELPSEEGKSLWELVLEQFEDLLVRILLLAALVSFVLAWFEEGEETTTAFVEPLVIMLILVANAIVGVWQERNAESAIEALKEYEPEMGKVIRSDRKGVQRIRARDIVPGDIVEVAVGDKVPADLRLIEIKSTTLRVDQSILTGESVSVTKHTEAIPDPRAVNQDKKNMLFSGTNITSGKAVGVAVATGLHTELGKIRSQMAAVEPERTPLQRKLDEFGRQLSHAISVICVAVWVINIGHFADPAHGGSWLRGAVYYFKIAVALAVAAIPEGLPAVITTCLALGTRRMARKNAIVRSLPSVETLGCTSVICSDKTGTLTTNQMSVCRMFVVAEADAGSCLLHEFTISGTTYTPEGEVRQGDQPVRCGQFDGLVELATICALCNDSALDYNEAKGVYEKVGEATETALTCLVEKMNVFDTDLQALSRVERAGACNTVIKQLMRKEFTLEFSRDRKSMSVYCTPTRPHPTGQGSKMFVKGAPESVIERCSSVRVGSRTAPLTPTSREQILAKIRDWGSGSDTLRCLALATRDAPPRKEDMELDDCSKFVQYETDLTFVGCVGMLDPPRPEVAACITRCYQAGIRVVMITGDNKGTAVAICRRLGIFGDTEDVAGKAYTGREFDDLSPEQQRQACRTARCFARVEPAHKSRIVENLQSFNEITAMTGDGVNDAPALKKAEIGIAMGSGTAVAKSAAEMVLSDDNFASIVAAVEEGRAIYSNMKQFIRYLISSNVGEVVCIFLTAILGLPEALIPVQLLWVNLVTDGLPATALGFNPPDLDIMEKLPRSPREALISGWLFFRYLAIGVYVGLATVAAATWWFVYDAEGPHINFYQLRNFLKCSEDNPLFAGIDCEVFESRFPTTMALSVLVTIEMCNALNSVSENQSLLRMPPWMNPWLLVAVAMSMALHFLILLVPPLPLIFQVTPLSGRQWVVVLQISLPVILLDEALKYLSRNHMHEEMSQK
SERCA2a (P16615-2, form named): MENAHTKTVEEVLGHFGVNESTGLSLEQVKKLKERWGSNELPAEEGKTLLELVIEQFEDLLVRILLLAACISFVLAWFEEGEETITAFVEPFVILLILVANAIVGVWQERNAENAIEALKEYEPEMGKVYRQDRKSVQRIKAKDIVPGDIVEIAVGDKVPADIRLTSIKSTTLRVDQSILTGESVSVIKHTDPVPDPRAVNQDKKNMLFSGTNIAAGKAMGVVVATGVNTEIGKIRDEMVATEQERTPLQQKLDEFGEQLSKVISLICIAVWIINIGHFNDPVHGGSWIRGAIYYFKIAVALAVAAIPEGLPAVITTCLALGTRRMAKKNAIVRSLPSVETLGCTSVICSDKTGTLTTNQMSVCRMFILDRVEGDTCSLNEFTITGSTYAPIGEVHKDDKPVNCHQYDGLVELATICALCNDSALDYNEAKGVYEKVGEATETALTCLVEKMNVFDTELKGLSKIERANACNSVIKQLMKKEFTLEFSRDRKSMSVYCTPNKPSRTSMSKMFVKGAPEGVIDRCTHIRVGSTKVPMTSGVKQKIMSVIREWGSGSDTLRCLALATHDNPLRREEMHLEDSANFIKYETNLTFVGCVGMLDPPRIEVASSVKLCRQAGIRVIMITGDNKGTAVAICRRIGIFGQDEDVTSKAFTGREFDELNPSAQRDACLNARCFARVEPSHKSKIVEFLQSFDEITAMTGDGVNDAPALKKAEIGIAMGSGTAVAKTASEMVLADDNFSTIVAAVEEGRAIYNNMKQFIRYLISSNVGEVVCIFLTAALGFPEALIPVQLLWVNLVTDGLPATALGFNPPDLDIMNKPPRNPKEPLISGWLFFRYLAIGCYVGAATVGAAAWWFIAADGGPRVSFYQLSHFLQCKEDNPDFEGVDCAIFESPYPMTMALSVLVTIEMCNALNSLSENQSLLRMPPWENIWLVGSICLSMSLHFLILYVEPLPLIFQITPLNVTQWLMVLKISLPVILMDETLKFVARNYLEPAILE
UniProt O14983: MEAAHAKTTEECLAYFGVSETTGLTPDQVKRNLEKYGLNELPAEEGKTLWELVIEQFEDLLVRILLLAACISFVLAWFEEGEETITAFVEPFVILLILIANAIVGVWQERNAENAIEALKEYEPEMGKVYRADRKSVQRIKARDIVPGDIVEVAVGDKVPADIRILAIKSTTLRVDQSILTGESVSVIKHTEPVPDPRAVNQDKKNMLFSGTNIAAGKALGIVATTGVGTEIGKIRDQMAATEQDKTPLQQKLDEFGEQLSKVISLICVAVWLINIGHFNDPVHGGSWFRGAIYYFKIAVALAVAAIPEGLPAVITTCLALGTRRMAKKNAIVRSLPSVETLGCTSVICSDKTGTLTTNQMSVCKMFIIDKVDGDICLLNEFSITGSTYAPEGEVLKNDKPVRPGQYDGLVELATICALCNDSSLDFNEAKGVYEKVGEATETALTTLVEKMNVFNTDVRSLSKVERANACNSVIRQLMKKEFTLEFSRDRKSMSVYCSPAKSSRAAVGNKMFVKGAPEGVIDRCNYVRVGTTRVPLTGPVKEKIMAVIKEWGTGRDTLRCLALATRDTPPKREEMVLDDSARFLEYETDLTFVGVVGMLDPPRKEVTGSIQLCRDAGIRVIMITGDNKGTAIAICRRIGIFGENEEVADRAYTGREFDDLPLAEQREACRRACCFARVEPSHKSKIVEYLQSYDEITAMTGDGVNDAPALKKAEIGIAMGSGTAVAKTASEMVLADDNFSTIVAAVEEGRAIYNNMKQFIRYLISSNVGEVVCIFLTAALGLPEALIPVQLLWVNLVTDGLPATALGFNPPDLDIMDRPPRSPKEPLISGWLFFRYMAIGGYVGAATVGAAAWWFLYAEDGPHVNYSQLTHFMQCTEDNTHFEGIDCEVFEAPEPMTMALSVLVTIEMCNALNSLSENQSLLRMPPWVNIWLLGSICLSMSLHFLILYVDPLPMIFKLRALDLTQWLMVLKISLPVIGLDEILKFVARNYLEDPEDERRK

Legend:
[1] = biological target: Piezo1-GST fusion protein (mouse Piezo1) (mouse) (UniProt E2JF22); test: pull-down; Supplementary Fig. 1 (not shown); told as 'similarly' to the GST pull-down from co-transfected HEK293T cells
[2] = biological target: endogenously expressed SERCA2 in Neuro2A (N2A) cells (mouse (endogenous in N2A)) (UniProt O55143); test: co-IP; N2A lysate (10 mM Tris-HCl pH 7.5, 150 mM NaCl, 1 mM EDTA, 1% Triton X-100, 0.5% NP-40); protein G magnetic beads with anti-SERCA2 or IgG, 4 °C overnight; blot with Piezo1 antibody; control or Piezo1 shRNA
[3] = biological target: T1, GST-fused Piezo1 fragment 1960–2483 (without CTD) (mouse) (UniProt E2JF22); test: pull-down; GST pull-down from lysates of HEK293T cells co-transfected with GST-fused bait and Flag-SERCA2; glutathione magnetic beads, 4 °C overnight; 25 mM NaPIPES, 140 mM NaCl, 1% CHAPS, 0.5% PC, 2.5 mM DTT; western blotting
T1 sequence: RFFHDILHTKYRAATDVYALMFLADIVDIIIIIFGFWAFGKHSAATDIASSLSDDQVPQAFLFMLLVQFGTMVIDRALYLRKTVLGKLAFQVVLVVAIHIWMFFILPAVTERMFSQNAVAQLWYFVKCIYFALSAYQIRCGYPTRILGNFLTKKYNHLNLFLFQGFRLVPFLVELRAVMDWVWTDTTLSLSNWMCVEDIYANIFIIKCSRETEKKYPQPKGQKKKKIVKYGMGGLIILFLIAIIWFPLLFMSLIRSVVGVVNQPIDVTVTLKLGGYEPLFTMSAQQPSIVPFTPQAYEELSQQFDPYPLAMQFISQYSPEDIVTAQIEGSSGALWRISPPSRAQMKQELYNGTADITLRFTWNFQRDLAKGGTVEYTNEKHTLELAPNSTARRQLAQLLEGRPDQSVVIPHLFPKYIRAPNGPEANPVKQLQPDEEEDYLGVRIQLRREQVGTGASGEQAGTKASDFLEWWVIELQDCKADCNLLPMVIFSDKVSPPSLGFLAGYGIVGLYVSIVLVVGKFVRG

[4] = biological target: T2, GST-fused Piezo1 fragment 2171–2483 (without CTD) (mouse) (UniProt E2JF22); test: as above
T2 sequence: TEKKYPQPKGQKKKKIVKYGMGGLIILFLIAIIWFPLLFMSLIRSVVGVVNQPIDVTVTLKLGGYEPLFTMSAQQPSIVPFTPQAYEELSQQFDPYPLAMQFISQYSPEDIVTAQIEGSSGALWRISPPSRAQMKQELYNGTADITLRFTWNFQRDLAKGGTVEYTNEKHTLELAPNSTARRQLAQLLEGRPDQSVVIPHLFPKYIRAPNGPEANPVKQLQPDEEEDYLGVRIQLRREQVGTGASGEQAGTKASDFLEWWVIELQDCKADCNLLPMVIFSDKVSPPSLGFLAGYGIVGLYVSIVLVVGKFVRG

[5] = biological target: Piezo1-GST fusion protein (mouse Piezo1) (mouse) (UniProt E2JF22); test: as above
[6] = biological target: T3, GST-fused predicted intracellular fragment of the central region of Piezo1 (1367–1652) (mouse) (UniProt E2JF22); test: as above
T3 sequence: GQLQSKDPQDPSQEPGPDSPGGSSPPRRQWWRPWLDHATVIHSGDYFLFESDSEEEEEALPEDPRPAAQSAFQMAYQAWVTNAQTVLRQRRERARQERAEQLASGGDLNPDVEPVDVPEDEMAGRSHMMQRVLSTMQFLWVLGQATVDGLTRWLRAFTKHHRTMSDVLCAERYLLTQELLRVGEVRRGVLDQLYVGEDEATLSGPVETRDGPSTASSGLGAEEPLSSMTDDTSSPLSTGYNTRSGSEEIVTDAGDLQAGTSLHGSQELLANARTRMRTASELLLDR

[7] = biological target: T4, GST-fused C-terminal fragment of Piezo1 (1960–2547) (mouse) (UniProt E2JF22); test: as above
T4 sequence: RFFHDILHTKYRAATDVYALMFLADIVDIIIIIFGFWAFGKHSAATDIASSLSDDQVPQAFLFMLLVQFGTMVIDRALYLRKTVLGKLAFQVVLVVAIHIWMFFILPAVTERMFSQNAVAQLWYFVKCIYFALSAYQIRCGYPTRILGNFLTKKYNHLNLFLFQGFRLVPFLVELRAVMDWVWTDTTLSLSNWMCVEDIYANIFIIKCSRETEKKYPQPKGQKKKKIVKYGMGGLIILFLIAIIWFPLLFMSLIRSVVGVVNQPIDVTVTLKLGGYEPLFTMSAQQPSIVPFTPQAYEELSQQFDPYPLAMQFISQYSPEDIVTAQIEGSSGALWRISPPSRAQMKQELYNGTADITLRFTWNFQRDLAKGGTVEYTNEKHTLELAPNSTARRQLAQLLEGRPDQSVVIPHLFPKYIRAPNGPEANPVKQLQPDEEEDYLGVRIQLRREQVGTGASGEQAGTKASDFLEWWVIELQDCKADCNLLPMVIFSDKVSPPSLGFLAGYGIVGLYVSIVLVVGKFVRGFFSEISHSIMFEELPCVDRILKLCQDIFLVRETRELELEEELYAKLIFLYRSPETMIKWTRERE

[8] = biological target: T5, GST-fused Piezo1 fragment 2171–2547 (with CTD) (mouse) (UniProt E2JF22); test: as above
T5 sequence: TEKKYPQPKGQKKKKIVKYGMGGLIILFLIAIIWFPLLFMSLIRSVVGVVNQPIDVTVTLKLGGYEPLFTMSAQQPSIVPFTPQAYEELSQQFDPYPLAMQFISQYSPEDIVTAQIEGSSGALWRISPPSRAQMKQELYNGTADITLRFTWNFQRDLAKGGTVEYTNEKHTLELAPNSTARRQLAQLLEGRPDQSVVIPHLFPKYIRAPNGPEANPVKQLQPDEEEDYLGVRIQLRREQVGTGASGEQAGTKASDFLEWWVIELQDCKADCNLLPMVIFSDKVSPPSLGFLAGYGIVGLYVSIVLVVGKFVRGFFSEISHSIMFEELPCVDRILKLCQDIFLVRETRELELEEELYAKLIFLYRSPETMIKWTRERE

[9] = biological target: T6, GST-fused N-terminal fragment of Piezo1 (1–730) (mouse) (UniProt E2JF22); test: as above
T6 sequence: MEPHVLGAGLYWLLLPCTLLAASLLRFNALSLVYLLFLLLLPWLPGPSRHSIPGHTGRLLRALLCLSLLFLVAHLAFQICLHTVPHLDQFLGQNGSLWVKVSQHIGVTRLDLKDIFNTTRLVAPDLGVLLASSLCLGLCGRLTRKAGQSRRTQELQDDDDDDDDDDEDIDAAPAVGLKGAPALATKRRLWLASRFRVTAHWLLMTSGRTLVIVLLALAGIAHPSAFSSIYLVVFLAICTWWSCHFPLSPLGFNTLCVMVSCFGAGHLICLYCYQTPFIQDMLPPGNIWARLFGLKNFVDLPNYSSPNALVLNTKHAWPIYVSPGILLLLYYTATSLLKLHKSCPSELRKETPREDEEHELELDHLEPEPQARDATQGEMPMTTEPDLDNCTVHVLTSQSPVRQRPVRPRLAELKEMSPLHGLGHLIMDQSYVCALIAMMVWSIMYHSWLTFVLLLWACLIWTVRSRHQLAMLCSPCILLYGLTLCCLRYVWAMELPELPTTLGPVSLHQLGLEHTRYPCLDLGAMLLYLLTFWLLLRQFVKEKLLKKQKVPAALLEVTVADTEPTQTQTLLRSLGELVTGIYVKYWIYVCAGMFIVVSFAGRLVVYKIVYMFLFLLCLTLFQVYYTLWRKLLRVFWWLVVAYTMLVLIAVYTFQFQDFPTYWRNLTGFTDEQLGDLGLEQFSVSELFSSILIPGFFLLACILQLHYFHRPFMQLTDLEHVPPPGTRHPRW

[10] = biological target: Piezo1-GST fusion protein (mouse Piezo1) (mouse) (UniProt E2JF22); test: pull-down; Piezo1-GST pull-down of co-expressed Flag-SERCA2 from HEK293T lysates with linker-peptide or scrambled-peptide added to the lysates at 200 μM, overnight

Q: For SERCA3 (from UniProt Q93084 1-999), which binding [1] is on record?
A: The binding was “binds”.

Q: Which binding [2] does the source give for “endogenously expressed Piezo1 in Neuro2A (N2A) cells (from UniProt E2JF22 1-2547)” here?
A: The binding was “binds”.

Q: For SERCA2a (from UniProt P16615-2 1-997), which binding [1] is on record?
A: Its binding is “binds”.

Q: For SERCA1 (from UniProt O14983 1-1001), which binding [1] is on record?
A: The binding was “binds”.

Q: How did the binding [3] turn out when “Flag-tagged SERCA2 (SERCA2b) (from UniProt P16615-1 1-1042)” was run?
A: The binding was “binds”.

Q: And the binding [4]?
A: The binding was “binds”.

Q: What about the binding [5] of the same substance?
A: Its binding is “binds”.

Q: What about the binding [6] of the same substance?
A: The binding was “no binding”.

Q: And the binding [7]?
A: The binding was “binds”.

Q: And the binding [8]?
A: The binding was “binds”.

Q: What about the binding [9] of the same substance?
A: The binding was “no binding”.

Q: And the binding [10]?
A: The binding was “binds”.
